Measurements taken from PubChem BioAssay AID686978 (National Center for Advancing Translational Sciences (NCATS), 2013).
The whole screen tested about 420,000 compounds, of which about 64,000 (15%) were called active. The inconclusive results got no clear call from the source; some entries with a clear call stand among them for comparison. Calls come from the whole dose curve; as a rule, active = well fitted inhibition curve with a large enough effect; inconclusive = small, poorly fitted or top-dose-only effect; inactive = flat fitted curve, though single readings scatter. Potencies of inconclusive entries are left out as doubtful fits.
% is set by controls: 0 for no effect and ±100 for the full control effect; potency is the fitted concentration of half-maximal effect; tags give direction and shape of the fitted curve.

Assay: qHTS for Inhibitors of human tyrosyl-DNA phosphodiesterase 1 (TDP1): qHTS in cells in absence of CPT; note: nearly all actives have a fitted effect of over 55% in size
Settings: DT40 Tdp1-/- hTDP1 cells, no CPT, ATP luminescence, 48 h; activity change, negative = growth inhibition: at 46.2 µM (top of the series) unless noted
Summary of the method: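 Chicken DT40 Tdp1-/- cells complemented with human TDP1, screened without camptothecin (DMSO vehicle only), 400 cells/well. Compounds pin-transferred, cells incubated at 37 °C for at least 48 hr. Growth read as ATP-dependent luminescence (CellTiter-Glo, 30 min at RT).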
For `Cc1ccc(S(=O)(=O)Nc2cc(C)c(O)c(Sc3n[nH]c(C)n3)c2)cc1`, the Potency was inconclusive [inhibitor, single point].
In the case of `Cc1cccc(CN2CCc3c(OCC(=O)N4CCCc5ccccc54)cccc3C2=O)c1`, the Potency is reported as active: 5.8 µM.
For `O=C1NC(=NCc2ccccc2)NC1(c1ccccc1)c1ccccc1`, the Potency was “inactive”.
For `CC(=O)N[C@H]1[C@H](Oc2ccc3c(c2)CCC2C3CC[C@]3(C)C(=O)CCC23)O[C@H](CO)[C@@H](O)[C@@H]1O` (some centres not stated), the Potency was “inactive”.
In the case of `Cc1nc(-c2ccc(Cl)cc2)sc1C1(C)CC(c2ccc(Cl)cc2)=NO1` (configuration not stated), the Potency is reported as inconclusive [inhibitor, single point].
With `CCn1c(C(=O)NCCCc2ccccc2)cc2sccc21` the Potency was inconclusive [inhibitor, single point].
In the case of `Cc1ccccc1CNC(=O)C(=O)NCC(c1ccco1)S(=O)(=O)c1ccc(F)cc1` (configuration not stated), the Potency is reported as inconclusive [inhibitor, single point].
With `CC1CN(c2oc(COc3ccc(Cl)cc3Cl)nc2C#N)CC(C)O1` (configuration not stated) the Potency was inconclusive [inhibitor, single point].
For `CCOC(=O)N1CCN(S(=O)(=O)c2cccc3nsnc23)CC1`, the Potency was inconclusive [inhibitor, full curve, poor fit].
With `Cc1[nH]nc2ncc(C(=O)c3cc(F)ccc3O)cc12` the Potency was inconclusive [inhibitor, single point].
With `CC1=NN(c2ccc([N+](=O)[O-])cc2)C(c2ccccc2)C1` (configuration not stated) the Potency was inconclusive [inhibitor, partial curve, poor fit].
In the case of `O=C(COc1cccc(Cl)c1)NNC(=S)Nc1ccccc1`, the Potency is reported as “inactive”.
In the case of `CC(C)(C)SCCNC(=O)c1ccc(CN2CCc3ccccc3C2)cc1`, the Potency is reported as inconclusive [inhibitor, partial curve].
With `Cc1ccc(/C=c2\sc3nc(-c4ccco4)nn3c2=O)o1` the Potency was active: 23.1 µM.
For `Cc1ccc(C(=O)OC(C)CN2CCOCC2)cc1` (configuration not stated), the Potency was “inactive”.
With `O=C(/C=C\c1ccco1)Nc1nc(-c2ccccc2)cs1` the Potency was “inactive”.
With `CC1CCCCN1CCCNC(=O)c1ccc(NC(=O)C2=CSCCO2)cc1` (configuration not stated) the Potency was “inactive”.
In the case of `CN(C)S(=O)(=O)c1ccc(N2CCCC2)c(C(=O)Nc2nc3ccccc3s2)c1`, the Potency is reported as inconclusive [inhibitor, single point].
With `Cc1c(C)c2ccc(OCC(=O)NCCc3c[nH]c4ccccc34)c(C)c2oc1=O` the activity change, negative = growth inhibition was inconclusive: -34.5% [inhibitor].
With `O=C(C(Sc1ccccc1)c1ccccc1)N1CCN(c2ccccc2)CC1` (configuration not stated) the Potency was inconclusive [inhibitor, single point].
In the case of `O=C(O)CCCN1C(=O)/C(=C/c2ccncc2)SC1=S`, the Potency is reported as inconclusive [inhibitor, single point].
For `Cc1ccc(CCNC(=O)c2cc(-c3ccncc3)nc3ccc(S(=O)(=O)N4CCOCC4)cc23)cc1`, the Potency was inconclusive [inhibitor, single point].
In the case of `Cc1cccc(NC(=O)CSc2nnc(-c3cccs3)o2)c1`, the Potency is reported as inconclusive [inhibitor, single point].
In the case of `CN1C(=O)c2ccc(NC(=O)c3ccc(N4CCCCC4)c([N+](=O)[O-])c3)cc2C1=O`, the Potency is reported as inconclusive [inhibitor, single point].
In the case of `CCOC(=O)c1ccc(NNC(=O)CC)c([N+](=O)[O-])c1`, the Potency is reported as “inactive”.
With `CSC(=Nc1ccccc1)C(C#N)c1nc2ccccc2[nH]1` (configuration not stated) the Potency was “inactive”.
For `O=C(c1ccoc1)N1CCC2(CC1)Oc1ccc(Cl)cc1C(=O)C21CC(c2ccccc2)=NO1` (configuration not stated), the Potency was inconclusive [inhibitor, single point].
For `C=CCn1cnc2scc(-c3ccc(C)c(C)c3)c2c1=O`, the Potency was inconclusive [inhibitor, partial curve].
In the case of `COC(=O)[C@]12CCCCC=C1N(CCC1=CCCCC1)C(=O)[C@H](CC(=O)NCc1cccs1)C2`, the Potency is reported as active: 16.4 µM.
In the case of `O=C1NC(c2ccccc2)CCC1(Cl)Cl` (configuration not stated), the Potency is reported as “inactive”.
In the case of `CCOC(=O)c1nc(-c2ccccc2)sc1C(C)=O`, the Potency is reported as “inactive”.
With `COc1ccc(CN(C)Cc2cc(=O)oc3cc(C)c(C(C)C)cc23)cc1OC` the Potency was inconclusive [inhibitor, single point].
For `COc1ccc(CN(C)C(=O)/C=C/c2ccc(S(=O)(=O)N3CCOCC3)cc2)cc1F`, the Potency was active: 20.6 µM.
For `COc1ccc(Nc2nc(-c3cc4cccc(OC)c4oc3=O)cs2)cc1`, the Potency was active: 20.6 µM.
With `Cc1c(NC(=O)CCCOc2ccccc2)cccc1[N+](=O)[O-]` the Potency was “inactive”.
For `O=C(Nc1cccc(C(F)(F)F)c1)NC1CCCCC1`, the Potency was inconclusive [inhibitor, single point].
For `Cc1ccc(-c2c(C(=O)N/N=C/c3sccc3C)nnn2-c2nonc2N)cc1`, the Potency was inconclusive [inhibitor, single point].
With `CCOc1cc(C)c(S(=O)(=O)NCCCn2ccnc2)cc1C` the Potency was inconclusive [inhibitor, single point].
With `COc1ccc(NC(=O)Cn2c(=O)nc(-c3ccccc3)c3ccccc32)cc1OC` the Potency was inconclusive [inhibitor, partial curve].
For `Cc1ncc([N+](=O)[O-])n1S(=O)(=O)c1cc(Cl)ccc1Cl`, the Potency was “inactive”.
In the case of `CCOC(=O)C(C)Oc1ncnc2cccc(F)c12` (configuration not stated), the Potency is reported as “inactive”.
In the case of `CCOC(=O)c1[nH]c2ccc(OCC)cc2c1NC(=O)CN1CCCC(C)C1` (configuration not stated), the Potency is reported as inconclusive [inhibitor, single point].
With `CC1CCc2sc(C(=O)N/N=C/c3ccc(O)cc3)cc2C1` (configuration not stated) the Potency was inconclusive [inhibitor, single point].
For `CCOc1ccc(NC(=O)CN(C)C(=O)c2ccc(OCC3CCCO3)cc2)cc1OCC` (configuration not stated), the Potency was “inactive”.
For `CC(c1ccon1)N(C)C(=O)c1ccc2nc(Cc3cccc(Cl)c3)oc2c1` (configuration not stated), the Potency was inconclusive [inhibitor, single point].
For `COc1cc(OC)c(OC)cc1CN1CCN(Cc2ccc(SC)cc2)CC1`, the Potency was active: 13 µM.
In the case of `Cc1cc2nc(C(C)(C)C)c(Cc3cccc(Cl)c3)n2c(C)c1Br`, the Potency is reported as “inactive”.
